Assay results taken from paper PMC4336329 (PLoS ONE, 2015).
Out of some 310,000 compounds screened, about 14,000 (4.5%) showed an effect of 50% or more. The effect is printed as a negative number. This is one part of the list.

These compounds were tested against human ether-à-go-go-related gene (hERG) potassium channel (human, UniProt Q12809) (assay: primary screen, population patch clamp on CHO cells stably expressing hERG).
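Note: peak tail current of the secondary pulse compared with the same well before compound.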

Chain of human ether-à-go-go-related gene (hERG) potassium channel (Q12809 whole entry, looked up): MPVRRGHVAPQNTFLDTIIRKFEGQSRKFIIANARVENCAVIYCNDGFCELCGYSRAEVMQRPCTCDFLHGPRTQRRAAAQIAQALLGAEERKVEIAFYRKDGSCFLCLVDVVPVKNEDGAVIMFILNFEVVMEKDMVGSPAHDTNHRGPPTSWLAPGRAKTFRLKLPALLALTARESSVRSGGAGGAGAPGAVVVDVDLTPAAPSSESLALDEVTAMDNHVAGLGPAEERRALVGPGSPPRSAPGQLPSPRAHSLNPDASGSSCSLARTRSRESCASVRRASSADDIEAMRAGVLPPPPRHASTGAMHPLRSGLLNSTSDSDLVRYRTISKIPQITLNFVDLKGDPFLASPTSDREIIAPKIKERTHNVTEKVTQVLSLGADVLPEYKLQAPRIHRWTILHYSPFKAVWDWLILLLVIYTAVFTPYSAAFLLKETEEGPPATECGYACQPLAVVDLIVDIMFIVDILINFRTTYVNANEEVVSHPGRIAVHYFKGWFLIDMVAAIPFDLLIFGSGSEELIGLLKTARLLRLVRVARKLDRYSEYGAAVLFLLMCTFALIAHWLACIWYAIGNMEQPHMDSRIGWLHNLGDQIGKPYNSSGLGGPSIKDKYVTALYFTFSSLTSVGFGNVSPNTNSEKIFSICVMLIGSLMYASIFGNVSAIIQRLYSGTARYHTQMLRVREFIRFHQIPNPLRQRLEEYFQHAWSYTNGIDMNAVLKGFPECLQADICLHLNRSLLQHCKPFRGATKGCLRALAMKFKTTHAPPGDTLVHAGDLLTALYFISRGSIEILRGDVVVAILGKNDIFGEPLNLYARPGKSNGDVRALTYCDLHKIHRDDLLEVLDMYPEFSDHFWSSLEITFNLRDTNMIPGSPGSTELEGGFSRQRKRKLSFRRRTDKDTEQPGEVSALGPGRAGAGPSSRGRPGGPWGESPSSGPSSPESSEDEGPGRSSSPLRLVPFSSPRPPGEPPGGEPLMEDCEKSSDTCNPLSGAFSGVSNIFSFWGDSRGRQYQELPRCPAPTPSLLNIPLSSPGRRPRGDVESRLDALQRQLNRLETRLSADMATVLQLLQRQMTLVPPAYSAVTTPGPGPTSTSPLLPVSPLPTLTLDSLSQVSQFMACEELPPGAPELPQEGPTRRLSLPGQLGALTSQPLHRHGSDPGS

Compound | hERG current change (%, negative = inhibition) at 10uM [%]
Cc1ccc(CNC(=O)c2cc(-c3cc(C)cc(C)c3O)n[nH]2)cc1 | 16.3
O=C(NC1CCOc2ccccc21)c1ccc(Cl)nc1 (stereo not shown) | 11.2
COc1ccc(C(=O)Nc2cccc(NC(=O)c3ccc(OC)c(OC)c3)n2)cc1OC | 1.59
Cc1nc(-c2ccccc2)nc2n[nH]c(N)c12 | 16.2
Cc1ccc(S(=O)(=O)NC2=NCN(C3CCCCC3)CN2)cc1 | 9.39
COCCCNC(=O)c1c(NC(=O)c2ccccc2Cl)n(Cc2ccccc2)c2nc3ccccc3nc12 | 6.73
Cc1c(C(=O)Nc2nonc2-c2ccc(F)cc2)oc2ccc(F)cc12 | -0.655
COC(=O)c1ccc(CNC(=O)c2ccc(COc3ccccc3)cc2)cc1 | 4.97
COc1cc(C(=O)Nn2cnnc2)ccc1OC(F)F | 21.3
Cc1ccc(C(=O)N/C(=C/c2ccccc2)C(=O)NC(Cc2ccccc2)C(=O)O)cc1 (stereo not shown) | 8.07
COC(=O)c1ccccc1NC(=O)CN(CCc1ccccc1)S(C)(=O)=O | -20
CN1CC(C(=O)c2ccc([N+](=O)[O-])cc2)C(c2ccc(Cl)cc2)C1 (stereo not shown) | -75.6
Nc1nc2nonc2nc1N | 15.3
CCOC(=O)c1csc(Nc2nc3ccc(F)cc3s2)n1 | -5.85
CSc1ccc(CN(C)CC(=O)NC(C)c2ccccc2)cc1 (stereo not shown) | -83.9
Cc1ccccc1NC(=O)c1c(C)[nH]c(=S)c(C#N)c1-c1ccc(Cl)cc1 | 21.1
COc1ccc(-c2c(S(=O)(=O)c3ccccc3)cnn2-c2ccccc2)cc1 | -2.43
COc1ccc2cc(S(=O)(=O)N3CCCC(C)C3)ccc2c1 (stereo not shown) | 6.14
COc1ccc(/C=N/NC(=O)CN2CCN(Cc3ccccc3)CC2)cc1Br | -68
Cc1cc(NC(=O)CSc2nc3ccccc3c(=O)n2Cc2ccc(F)cc2)no1 | 5.59
CCOC(=O)C(NC(C)=O)(NS(=O)(=O)c1ccccc1)C(F)(F)F (stereo not shown) | 16.2
CS(=O)(=O)c1ccc(Cl)c(NC(=O)CCN2C(=O)C3CC=CCC3C2=O)c1 (stereo not shown) | -2.93

Compound | hERG current change (%, negative = inhibition) at 10uM [%]
O=C(COc1ncnc2ccccc12)N1CCN(S(=O)(=O)c2ccccc2)CC1 | 4.3
Cc1nc2cccc(C(=O)NCc3ccccc3)c2o1 | 5.43
CC(C)C1Nc2c(C(=O)[O-])cccc2C(Nc2ccccc2C(=O)[O-])C1(C)C.[K+] (stereo not shown) | -0.17
CCc1nnc(NC(=O)c2nn(-c3ccccc3)nc2C)s1 | 0.641
COc1ccc(C(C2C(=O)CC(C)(C)CC2=O)C2C(=O)CC(C)(C)CC2=O)cc1COCC(F)(F)F | -10.9
CN1C(=O)/C(=C/c2ccc(OCc3cccc(F)c3)cc2)NC1=S | 19.6
CC(C)N(Cc1ccccc1)C(=O)c1ccc2c(c1)OCO2 | 1.14
CC(CCn1cccn1)NC(=O)c1cc(COc2ccc(F)cc2Cl)on1 (stereo not shown) | -30.6
COC(=O)NNC1=CC(=O)CC(C)(C)C1 | 23.9
O=[N+]([O-])c1ccccc1S(=O)(=O)Nc1nc2ccccc2s1 | -15.4
CC(C)Oc1ccc(S(=O)(=O)N2CCOCC2)cc1NC(=O)CC1CCCC1 | -7.52
C=CCc1cc(C=O)cc(OCC)c1OCc1ccc(Cl)cc1 | 31.4
CCN(CC1CCCN(CCc2cccc(OC)c2)C1)C(=O)c1ccoc1 (stereo not shown) | -70.7
COCCCn1c(C23CC4CC(CC(C4)C2)C3)n[nH]c1=S | -5.2
Cc1ccc(C(NC(=O)N2CCCC2)C(Cl)Cl)cc1F (stereo not shown) | -39.2
COc1ccc(OC)c(NC(=O)c2nnn(CC(=O)Nc3ccc4c(c3)OCO4)c2N)c1 | 5.99
Cc1ccccc1C(=O)N1CCN(c2ccc(NC(=O)Cc3ccccc3)cc2)CC1 | -5.38
Cc1ccccc1Nc1nnc(SCC2CCCCO2)s1 (stereo not shown) | -8.78
Cc1cc2c3c(c1C)C(=O)C(=O)N3C(C)(C)CC2C (stereo not shown) | 6.5
Cc1ccccc1C(=O)N/N=C1/SCC(=O)N1Cc1ccccc1 | -29.8
CC(=O)c1ccccc1NC(=O)COC(=O)/C=C/c1ccc(OC(F)F)cc1 | 16.2
O=C(Cc1ccc(Cl)cc1)Nc1ccc(S(=O)(=O)Nc2cnc3ccccc3n2)cc1 | 21.1

Compound | hERG current change (%, negative = inhibition) at 10uM [%]
Cc1ccccc1NC1=C(Cl)C(=O)N(C2CCCCC2)C1=O | -1.23
O=C1c2ccccc2C2=Nc3ccccc3SC(c3ccc(Cl)cc3)C12 (stereo not shown) | 5.54
CCn1c(NC)cc(=O)n(C)c1=O | 11.2
CC(=O)Nc1ccc(NC(=O)CN2CCN(c3ccccn3)CC2)cc1 | 13.3
COc1ccc(S(=O)(=O)N(C(=O)c2ccncc2)c2ccc3oc4c(c3c2)CCCC4)cc1 | -5.37
CCC(=O)N1c2ccc(S(=O)(=O)CCC(=O)N3CCn4c3nc3ccccc34)cc2CC1C (stereo not shown) | 1.31
Cc1cccc(OCCSc2ncnc3nc[nH]c23)c1 | -1.22
Nc1c(C(=O)N2CCOCC2)sc2nc3c(cc12)CCC3 | 5.1
CCOc1ccc(NC(=S)N2CCCN(Cc3cc(C)ccc3C)C2)cc1 | -57.8
O=c1[nH]c2ccc(Cl)cc2c(-c2ccccc2)c1N1CCN(CCO)CC1 | -64.6
Cc1sc(NC(=O)c2cc(-c3ccccc3)nc3ccccc23)c(C(N)=O)c1C | 6.09
Cc1nnc(SC(C(=O)Nc2ccc(Cl)c([N+](=O)[O-])c2)c2ccccc2)[nH]c1=O (stereo not shown) | 20.7
COc1ccc(OCCNc2cc(N3CCCCC3)ccc2[N+](=O)[O-])cc1 | 11.2
O=C(NCc1ccco1)c1cc2sccc2n1Cc1ccccc1 | -15.7
CCOC(=O)CSc1nnc(-c2cccc(Br)c2)o1 | 1.27
COc1ccc(N(CC(=O)NC2CCCC2)C(=O)CCC(=O)Nc2cc(C)on2)c(OC)c1 | -12.4
O=C(O)CCc1ccc(-c2ccc(Br)cc2)n1NC(=O)c1ccc([N+](=O)[O-])cc1 | 2.6
COc1ccc(Br)cc1/C=N/n1c(C)nnc1C | -1.89
NC(=O)Cn1cc(C=C2C(=O)NC(=O)NC2=O)c2ccccc21 | 20.3
CC1CN(CC(=O)Nc2cccc(C(=O)Nc3cccc(C(F)(F)F)c3)c2)CC(C)O1 (stereo not shown) | -54.3
Cn1c(C(=O)NCCOc2ccccc2Cl)cc(=O)n(C)c1=O | 14.5
CCc1nnc(NC(=O)[C@@H](NC(=O)c2cccc(S(=O)(=O)N3CCOCC3)c2)C(C)C)s1 | 6.16

Compound | hERG current change (%, negative = inhibition) at 10uM [%]
CCOc1ccc(N2CC(C(=O)Nc3nnc(C4CCCCC4)s3)CC2=O)cc1 (stereo not shown) | -14.6
Cc1c(C(=O)OCC(=O)N(C)C2CCS(=O)(=O)C2)oc2ccc(Br)cc12 (stereo not shown) | -23.8
O=C(/C=C/c1ccc(S(=O)(=O)N2CCOCC2)cc1)NCc1ccccc1 | -4.31
CCOc1ccc(C2NC(=O)NC(C)=C2C(=O)OCc2ccccc2)cc1 (stereo not shown) | -4.23
CCn1c(COc2cccc(C)c2)nc2ccccc21 | 0.719
CN1CCC[C@H]1c1cccnc1.O=C(O)C(O)C(O)C(=O)O | -4.63
CCOCc1nnc(NC(=O)CCC2CCCCC2)s1 | 14
CC1CN(c2nc3c(c(=O)n(C)c(=O)n3C)n2Cc2c(Cl)cccc2Cl)CC(C)O1 (stereo not shown) | -10.5
CCC(=O)Nc1nnc(-c2ccncc2)s1 | 19.3
COc1ccc2c(c1)cc1c(=O)n(CC(=O)NC(C)CCc3ccccc3)nc(C)n12 (stereo not shown) | 19
CC1=C/C(=N\OC(=O)/C=C/c2ccccc2)C(C)=CC1=O | 1.92
Cc1nc(C2CCC3C4CCC5=CC(=O)CC[C@]5(C)C4CC[C@]23C)cs1 (stereo partly shown) | 22
Cn1cnnc1SCC(=O)OCN1C(=O)c2ccccc2C1=O | 13
CCOc1ccccc1NC(=S)NCc1ccco1 | 20.3
COc1ccc(C2c3ccc4ccccc4c3Oc3ncn(CCCO)c(=N)c32)cc1OC (stereo not shown) | -62.3
CNC(=O)c1c(NC(=O)CCS(=O)(=O)c2ccc(Cl)cc2)sc2c1CCN(C(=O)OC)C2 | -21.7
COc1ccc(OC)c(C2Nc3nc4ccccc4n3C(C)=C2C(=O)Nc2ccc(C)cc2C)c1 (stereo not shown) | -16
O=C(Nc1ccc(SC(F)F)cc1)C1CC(=O)N(Cc2ccccc2)C1 (stereo not shown) | -48
COc1ccc(NC(=O)CN2CCN(C(=O)N3CCOCC3)CC2)cc1 | -14.2
C=CCc1cccc(CNc2ccc(Br)cc2)c1O | 9.44
CCc1ccc(-c2cc3c(=O)n(CC(=O)N4CCCCCC4)nc(C)n3n2)cc1 | 12.9
COc1ccc(N/N=C(/C(C)=O)N2CCCc3ccccc32)cc1 | 3.55
